Experimental data published in publication PMC11753496, “A novel pathological mutant reveals the role of torsional flexibility in the serpin breach in adoption of an aggregation‐prone intermediate” (The Febs Journal, 2024).

Columns and labels:
[1] = target: the molecule itself; test: FRET or BRET; purified AAT labelled with Atto-488-NHS and Atto-594-NHS via primary amines; polymerisation followed by the increase in FRET (excitation 470 nm, emission 605 ± 15 nm) at temperatures between 50 and 65 °C; half-times on an Arrhenius plot
bovine α-chymotrypsin = bovine α-chymotrypsin (bovine); test: cell-based or functional assay

B1: recombinant Gly192Cys alpha-1-antitrypsin (AAT Sydney) (natural protein)
chain: not shown
notes: alpha-1-antitrypsin (AAT, SERPINA1), human, with the patient mutation Gly192Cys (c.646G>T) put into wild-type AAT in pQE-30; also called Gly192Cys AAT; G192C
[1]
  half-time of polymerisation at 54.8 °C, fold faster than M AAT: 3.8 fold
Bovine α-chymotrypsin
  stoichiometry of inhibition: residual activity of bovine α-chymotrypsin at various inhibitor-to-enzyme ratios: 1.7 fold molar excess (inhibitor over enzyme)
